Reference: a collection of fitness landscapes (doi:10.1016/j.celrep.2020.107928)
Over roughly 81,000 sequences, “one-hybrid fitness for binding NBS DNA” has its median near -0.1; the highest 2% begin near 0.36. This is one part of the list.

B1: Caulobacter ParB omega fusion; a variant is named by its letters at X, in order, B8GW30 (parent)
chain: MESVVVGEPGMSEGRRGLGRGLSALLGEVDAAPAQAPGEQLGGSREAPIEILQRNPDQPRRTFREEDLEDLSNSIREKGVLQPILVRPSPDTAGEYQIVAGERAWRAAQRAGLKTVPIMVRELDDLAVLEIGIIENVQRADLNVLEEALSYKVLMEKFERTQENIAQTIGKSXSHVANXMRLLXLPDEVQSYLVSGELTAXHARAIAAAADPVALAKQIIEGGLSVRETEALARKAPNLSAGKSKGGRPPRVKDTDTQALESDLSSVLGLDVSIDHRGSTGTLTITYATLEQLDDLCNRLTRGI

Variants of: B1
Assay: one-hybrid fitness for binding NBS DNA (the Noc-binding site; scaled: cognate 1, non-cognate 0); higher = stronger binding
Settings: with NBS DNA site
In short: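 On M9-minus-histidine containing 0.1 mM IPTG and 5 mM 3-AT, E. coli USO cells with a HIS3 reporter, site 19 bp from the promoter, grew 48 hours at 37°C to select Caulobacter ParB libraries randomised at four specificity codons. Plasmids from before and after were Illumina-sequenced, with three replicate libraries pooled and variants under 10 reads left out. Fitness is the log change in variant-to-wild-type read ratio, rescaled against cognate and non-cognate.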

Row | Variant | one-hybrid fitness for binding NBS DNA
1 | VCMS | ≤ 0.2
2 | EHNG | ≤ 0.2
3 | HNTA | ≤ 0.2
4 | TMCA | ≤ 0.2
5 | AAFR | ≤ 0.2
6 | HTRW | ≤ 0.2
7 | GGTE | ≤ 0.2
8 | DFKE | ≤ 0.2
9 | WEYS | ≤ 0.2
10 | FNYS | ≤ 0.2
11 | RAMF | ≤ 0.2
12 | WACT | ≤ 0.2
13 | MDSM | ≤ 0.2
14 | SPGA | ≤ 0.2
15 | NYLE | ≤ 0.2
16 | NNWG | ≤ 0.2
17 | TSNA | ≤ 0.2
18 | AMMG | ≤ 0.2
19 | SVQF | ≤ 0.2
20 | ANPM | ≤ 0.2
21 | YPAE | ≤ 0.2
22 | EVKT | ≤ 0.2
23 | CRIC | ≤ 0.2
24 | QEPN | ≤ 0.2

Row | Variant | one-hybrid fitness for binding NBS DNA
25 | NVVR | ≤ 0.2
26 | YLYL | ≤ 0.2
27 | CHST | ≤ 0.2
28 | VTMV | ≤ 0.2
29 | PLHC | ≤ 0.2
30 | MDTE | ≤ 0.2
31 | GTGE | ≤ 0.2
32 | VFQR | ≤ 0.2
33 | YPKV | ≤ 0.2
34 | FPSG | ≤ 0.2
35 | SCEN | ≤ 0.2
36 | VPNG | ≤ 0.2
37 | GDRG | ≤ 0.2
38 | SRQM | ≤ 0.2
39 | MDLS | ≤ 0.2
40 | NHDG | ≤ 0.2
41 | ADIR | ≤ 0.2
42 | NWNE | ≤ 0.2
43 | PSLA | ≤ 0.2
44 | AKIC | ≤ 0.2
45 | EAHS | ≤ 0.2
46 | EEER | ≤ 0.2
47 | RMMR | 0.332
48 | EWAW | ≤ 0.2

Row | Variant | one-hybrid fitness for binding NBS DNA
49 | SVRY | ≤ 0.2
50 | LHCR | ≤ 0.2
51 | QGWC | ≤ 0.2
52 | PLTL | ≤ 0.2
53 | YAAE | ≤ 0.2
54 | RVVR | 0.3
55 | NTRI | ≤ 0.2
56 | HRAR | ≤ 0.2
57 | GEKG | ≤ 0.2
58 | LMKM | ≤ 0.2
59 | PILV | ≤ 0.2
60 | NQLW | ≤ 0.2
61 | CKQC | ≤ 0.2
62 | SYDT | ≤ 0.2
63 | QMTV | ≤ 0.2
64 | QTHY | 0.384
65 | ESYS | ≤ 0.2
66 | GDME | ≤ 0.2
67 | VHPH | ≤ 0.2
68 | KAPT | ≤ 0.2
69 | PFKC | ≤ 0.2
70 | WPWT | ≤ 0.2
71 | KSCN | ≤ 0.2
72 | SERA | ≤ 0.2

Row | Variant | one-hybrid fitness for binding NBS DNA
73 | EAYT | ≤ 0.2
74 | KNEM | ≤ 0.2
75 | GNIK | ≤ 0.2
76 | DTHE | ≤ 0.2
77 | TCLS | ≤ 0.2
78 | YNLS | ≤ 0.2
79 | RRTL | ≤ 0.2
80 | REDD | ≤ 0.2
81 | PLAL | ≤ 0.2
82 | PGSC | ≤ 0.2
83 | MQAG | ≤ 0.2
84 | CPVF | ≤ 0.2
85 | TTYG | ≤ 0.2
86 | RGFH | ≤ 0.2
87 | KSME | ≤ 0.2
88 | DYYI | ≤ 0.2
89 | TLDA | ≤ 0.2
90 | CRII | ≤ 0.2
91 | WPRC | ≤ 0.2
92 | FKLL | ≤ 0.2
93 | LRHH | ≤ 0.2
94 | ANWR | ≤ 0.2
95 | TMGR | ≤ 0.2
96 | MQTL | ≤ 0.2

Row | Variant | one-hybrid fitness for binding NBS DNA
97 | GNNW | ≤ 0.2
98 | QTYF | ≤ 0.2
99 | AVTI | ≤ 0.2
100 | ECNI | ≤ 0.2
101 | YVRT | ≤ 0.2
102 | SELC | ≤ 0.2
103 | LAFQ | ≤ 0.2
104 | MTRN | ≤ 0.2
105 | MLPP | ≤ 0.2
106 | TAFC | ≤ 0.2
107 | ERWS | ≤ 0.2
108 | SSSE | ≤ 0.2
109 | TNKS | ≤ 0.2
110 | HRSF | ≤ 0.2
111 | FYVW | ≤ 0.2
112 | HWLL | ≤ 0.2
113 | MHHS | ≤ 0.2
114 | VKSQ | ≤ 0.2
115 | PQQT | ≤ 0.2
116 | QVEG | ≤ 0.2
117 | PGHT | ≤ 0.2
118 | STNA | ≤ 0.2
119 | YSKA | ≤ 0.2
120 | LLFG | ≤ 0.2

Row | Variant | one-hybrid fitness for binding NBS DNA
121 | TNIW | ≤ 0.2
122 | VGKV | ≤ 0.2
123 | RANG | ≤ 0.2
124 | NHSF | ≤ 0.2
125 | PRLC | ≤ 0.2
126 | ELRR | ≤ 0.2
127 | RQDR | ≤ 0.2
128 | QPGP | ≤ 0.2
129 | TTSM | ≤ 0.2
130 | TAII | ≤ 0.2
131 | TAKP | ≤ 0.2
132 | HRRR | 0.323
133 | SRPL | ≤ 0.2
134 | CAYF | ≤ 0.2
135 | VDFT | ≤ 0.2
136 | DDMC | ≤ 0.2
137 | RCYR | 0.518
138 | FTPT | ≤ 0.2
139 | SCLP | ≤ 0.2
140 | TMTM | ≤ 0.2
141 | FVHL | ≤ 0.2
142 | TPAL | ≤ 0.2
143 | TFDY | ≤ 0.2
144 | GADR | ≤ 0.2

Row | Variant | one-hybrid fitness for binding NBS DNA
145 | VDQK | ≤ 0.2
146 | GILS | ≤ 0.2
147 | GQSV | ≤ 0.2
148 | DFWS | ≤ 0.2
149 | KGPS | ≤ 0.2
150 | TITY | ≤ 0.2
151 | RSTV | ≤ 0.2
152 | LPIS | ≤ 0.2
153 | GRCN | ≤ 0.2
154 | APVQ | ≤ 0.2
155 | FFCR | ≤ 0.2
156 | QLDL | ≤ 0.2
157 | DAFR | ≤ 0.2
158 | QQHD | ≤ 0.2
159 | CPLR | ≤ 0.2
160 | HAGC | ≤ 0.2
161 | HYSY | ≤ 0.2
162 | YATP | ≤ 0.2
163 | MGES | ≤ 0.2
164 | PSFY | ≤ 0.2
165 | KRPR | 0.239
166 | TLFS | ≤ 0.2
167 | PFLR | ≤ 0.2
168 | LNCA | ≤ 0.2

Row | Variant | one-hybrid fitness for binding NBS DNA
169 | MCHS | ≤ 0.2
170 | CTRD | ≤ 0.2
171 | QRTK | 0.414
172 | SYSV | ≤ 0.2
173 | LPFV | ≤ 0.2
174 | YTSP | ≤ 0.2
175 | GDAR | ≤ 0.2
176 | NAKC | ≤ 0.2
177 | YQPT | ≤ 0.2
178 | YGTM | ≤ 0.2
179 | PIFE | ≤ 0.2
180 | SERD | ≤ 0.2
181 | PYHP | ≤ 0.2
182 | MYHR | ≤ 0.2
183 | HTMG | ≤ 0.2
184 | RHVV | ≤ 0.2
185 | LSDA | ≤ 0.2
186 | IIGF | ≤ 0.2
187 | TWNL | ≤ 0.2
188 | RNRT | 0.391
189 | GMVG | ≤ 0.2
190 | GSHG | ≤ 0.2
191 | ANSV | ≤ 0.2
192 | ANSY | ≤ 0.2

Row | Variant | one-hybrid fitness for binding NBS DNA
193 | SSDI | ≤ 0.2
194 | ICQG | ≤ 0.2
195 | PKYV | ≤ 0.2
196 | RQHW | ≤ 0.2
197 | PLVG | ≤ 0.2
198 | ILWS | ≤ 0.2
199 | PVTP | ≤ 0.2
200 | IACY | ≤ 0.2
201 | PTQP | ≤ 0.2
202 | FKNG | ≤ 0.2
203 | VQHG | ≤ 0.2
204 | EPGG | ≤ 0.2
205 | ITNQ | ≤ 0.2
206 | GKKW | ≤ 0.2
207 | HHIS | ≤ 0.2
208 | RVVK | ≤ 0.2
209 | HEKE | ≤ 0.2
210 | NCDT | ≤ 0.2
211 | GTAV | ≤ 0.2
212 | WTNF | ≤ 0.2
213 | NVRY | ≤ 0.2
214 | MQHN | ≤ 0.2
215 | VQHC | ≤ 0.2
216 | ICTS | ≤ 0.2

Row | Variant | one-hybrid fitness for binding NBS DNA
217 | IQDG | ≤ 0.2
218 | GQKG | ≤ 0.2
219 | QKGL | ≤ 0.2
220 | TPGR | ≤ 0.2
221 | HHDY | 0.251
222 | FKQS | ≤ 0.2
223 | QRDT | 0.671
224 | DRPF | ≤ 0.2
225 | ALSM | ≤ 0.2
226 | TWFP | ≤ 0.2
227 | RFGH | ≤ 0.2
228 | RWWS | ≤ 0.2
229 | HCRG | ≤ 0.2
230 | SPQK | ≤ 0.2
231 | RQMM | ≤ 0.2
232 | LDMP | ≤ 0.2
233 | FLFV | ≤ 0.2
234 | QPDI | ≤ 0.2
235 | NAEC | ≤ 0.2
236 | AIGY | ≤ 0.2
237 | PFHG | ≤ 0.2
238 | AAKS | ≤ 0.2
239 | DPTY | ≤ 0.2
240 | ASWS | ≤ 0.2

Row | Variant | one-hybrid fitness for binding NBS DNA
241 | FPNC | ≤ 0.2
242 | SSKH | ≤ 0.2
243 | MDAT | ≤ 0.2
244 | QVIQ | ≤ 0.2
245 | GIRC | ≤ 0.2
246 | LSIN | ≤ 0.2
247 | HDLY | ≤ 0.2
248 | APGS | ≤ 0.2
249 | TAFF | 0.261
250 | VSGI | ≤ 0.2
251 | IGSI | ≤ 0.2
252 | FSPT | ≤ 0.2
253 | IVRR | ≤ 0.2
254 | LVFS | ≤ 0.2
255 | DAGW | ≤ 0.2
256 | KIGR | ≤ 0.2
257 | LQKV | ≤ 0.2
258 | TAPY | ≤ 0.2
259 | FPRH | ≤ 0.2
260 | GQAT | ≤ 0.2
261 | KALG | ≤ 0.2
262 | KRWW | ≤ 0.2
263 | SNNP | ≤ 0.2
264 | CLDR | ≤ 0.2

Row | Variant | one-hybrid fitness for binding NBS DNA
265 | PIQR | ≤ 0.2
266 | KVNE | ≤ 0.2
267 | RIQQ | ≤ 0.2
268 | LSTR | ≤ 0.2
269 | PNAV | ≤ 0.2
270 | VSAM | ≤ 0.2
271 | YKPF | ≤ 0.2
272 | MSYG | ≤ 0.2
273 | SGAT | ≤ 0.2
274 | QTEV | ≤ 0.2
275 | WQNS | ≤ 0.2
276 | WFPS | ≤ 0.2
277 | IGDS | ≤ 0.2
278 | PEAS | ≤ 0.2
279 | YGST | ≤ 0.2
280 | RMMY | ≤ 0.2
281 | DGDT | ≤ 0.2
282 | RNPF | ≤ 0.2
283 | HLTK | ≤ 0.2
284 | PECV | ≤ 0.2
285 | MLKS | ≤ 0.2
286 | QEHR | ≤ 0.2
287 | EPNG | ≤ 0.2
288 | TFGF | ≤ 0.2

Row | Variant | one-hybrid fitness for binding NBS DNA
289 | RIVH | ≤ 0.2
290 | KNYR | ≤ 0.2
291 | KNLK | ≤ 0.2
292 | FQDR | ≤ 0.2
293 | VEIC | ≤ 0.2
294 | CFHV | ≤ 0.2
295 | KYKG | ≤ 0.2
296 | LDQL | ≤ 0.2
297 | HNLA | ≤ 0.2
298 | CTEA | ≤ 0.2
299 | YAQG | ≤ 0.2
300 | VGMG | ≤ 0.2
301 | RMTG | ≤ 0.2
302 | MGCL | ≤ 0.2
303 | NDNN | ≤ 0.2
304 | CTCE | ≤ 0.2
305 | WTIC | ≤ 0.2
306 | SQVH | ≤ 0.2
